These are yes or no findings as the source states them, for the method shown. In cells and extracts the contact can be indirect. Some binding calls cover weakened binding; strength is not graded here. Blank lines part the entries; values can stand above or below the molecule they belong to.
Assays:
[1] = molecular target: T1, geminin (human (endogenous in HME)) (UniProt O75496); assay: co-IP; anti-geminin antibody IP from sonicated extracts of S-synchronized HME cells; co-precipitated proteins cut from a gel and identified by micro-sequencing
T1 sequence: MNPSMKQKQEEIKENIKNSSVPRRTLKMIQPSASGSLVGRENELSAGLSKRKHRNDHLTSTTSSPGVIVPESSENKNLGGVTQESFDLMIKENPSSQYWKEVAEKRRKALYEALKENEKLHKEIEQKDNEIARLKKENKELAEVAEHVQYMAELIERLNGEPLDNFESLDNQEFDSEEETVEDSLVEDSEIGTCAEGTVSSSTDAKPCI

Amino acid sequences for entries named in this document (tags omitted).
UniProt P00519: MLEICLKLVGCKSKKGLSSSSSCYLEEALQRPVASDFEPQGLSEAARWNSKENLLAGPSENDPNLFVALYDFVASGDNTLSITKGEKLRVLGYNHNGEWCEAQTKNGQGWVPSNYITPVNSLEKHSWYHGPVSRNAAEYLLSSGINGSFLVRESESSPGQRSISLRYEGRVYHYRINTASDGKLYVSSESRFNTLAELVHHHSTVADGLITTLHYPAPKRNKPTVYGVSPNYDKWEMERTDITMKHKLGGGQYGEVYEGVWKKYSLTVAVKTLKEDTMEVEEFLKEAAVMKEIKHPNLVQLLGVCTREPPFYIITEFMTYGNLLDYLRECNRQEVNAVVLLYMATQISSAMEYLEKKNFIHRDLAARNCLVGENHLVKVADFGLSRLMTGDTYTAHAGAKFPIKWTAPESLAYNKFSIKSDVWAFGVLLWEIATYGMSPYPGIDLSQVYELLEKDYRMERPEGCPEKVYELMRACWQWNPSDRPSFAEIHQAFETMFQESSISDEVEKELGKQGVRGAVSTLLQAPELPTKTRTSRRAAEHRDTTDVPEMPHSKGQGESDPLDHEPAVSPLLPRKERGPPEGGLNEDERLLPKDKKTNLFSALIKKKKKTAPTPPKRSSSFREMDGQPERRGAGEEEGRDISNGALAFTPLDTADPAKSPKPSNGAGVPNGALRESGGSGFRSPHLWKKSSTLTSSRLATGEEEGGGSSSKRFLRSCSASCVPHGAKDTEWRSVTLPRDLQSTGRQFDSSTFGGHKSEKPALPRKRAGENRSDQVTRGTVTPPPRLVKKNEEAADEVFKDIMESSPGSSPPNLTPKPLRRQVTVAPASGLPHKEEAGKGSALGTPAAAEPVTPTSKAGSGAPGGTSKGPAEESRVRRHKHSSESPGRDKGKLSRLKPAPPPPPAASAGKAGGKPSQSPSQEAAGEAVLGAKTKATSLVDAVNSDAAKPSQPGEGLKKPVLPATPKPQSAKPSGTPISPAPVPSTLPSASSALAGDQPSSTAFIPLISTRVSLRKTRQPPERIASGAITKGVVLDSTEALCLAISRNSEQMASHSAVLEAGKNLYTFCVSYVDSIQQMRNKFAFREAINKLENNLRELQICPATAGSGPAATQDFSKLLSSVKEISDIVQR

[2] = molecular target: T1, geminin (human (endogenous in HME)); assay: co-IP; anti-geminin antibody IP from sonicated extracts of G2/M-synchronized HME cells; co-precipitated proteins cut from a gel and identified by micro-sequencing
[3] = molecular target: T2, Cdt1 (human (endogenous in HME)) (UniProt Q9H211); assay: co-IP; anti-Cdt1 or anti-c-Abl antibody IP from sonicated synchronized HME cells (S for Cdt1; G2/M and M/G1 for c-Abl), immunoblot with anti-geminin antibody
T2 sequence: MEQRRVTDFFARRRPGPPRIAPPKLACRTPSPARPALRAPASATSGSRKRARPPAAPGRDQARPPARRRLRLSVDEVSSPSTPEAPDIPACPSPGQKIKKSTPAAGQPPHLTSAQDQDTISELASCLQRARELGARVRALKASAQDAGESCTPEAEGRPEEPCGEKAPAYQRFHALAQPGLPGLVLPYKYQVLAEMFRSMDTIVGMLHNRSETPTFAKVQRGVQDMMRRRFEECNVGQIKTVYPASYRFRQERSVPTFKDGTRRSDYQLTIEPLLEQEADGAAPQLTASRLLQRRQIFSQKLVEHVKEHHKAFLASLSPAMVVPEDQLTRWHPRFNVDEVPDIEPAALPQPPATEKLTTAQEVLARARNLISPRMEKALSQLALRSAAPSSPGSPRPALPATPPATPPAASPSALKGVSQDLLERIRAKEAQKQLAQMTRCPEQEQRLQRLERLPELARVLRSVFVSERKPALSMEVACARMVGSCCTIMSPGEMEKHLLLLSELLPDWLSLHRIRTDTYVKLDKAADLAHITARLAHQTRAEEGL

[4] = molecular target: c-Abl (human (endogenous in HME)) (UniProt P00519); assay: as above
[5] = molecular target: T2, Cdt1 (human (endogenous in HME)); assay: condition: only cycling, G0/G1-, G2/M- or M/G1-synchronized cells; co-IP; anti-Cdt1 antibody IP from sonicated cycling or G0/G1-, G2/M- and M/G1-synchronized HME cells (extracts other than S phase), immunoblot with anti-geminin antibody

binding [2]: binds
Molecule: c-Abl (from UniProt P00519 1-1130) (enzyme)
binding [1]: no binding (condition: S-phase-synchronized cells)

binding [1]: binds
B1: Cdt1 (protein, UniProt Q9H211 1-546)
chain: T2 sequence
binding [2]: no binding (condition: G2/M-synchronized cells)

binding [3]: binds
binding [4]: binds
binding [5]: no binding
B2: geminin (protein, UniProt O75496 1-209)
chain: T1 sequence

Source: article PMC4005756
